Measurements taken from article PMC7819943, “Rice protein-binding microarrays: a tool to detect cis-acting elements near promoter regions in rice”.
Some of the results follow.

What follows are sequences tested against T1, OsWOX13 (Oryza sativa, UniProt Q5QMM3 1-267) (assay: protein-binding microarray (RPBM); PBS, 2% BSA, 51.3 ng/ul salmon testes DNA, 50 uM zinc acetate, 200 nM TF, 25 C, 1 h; high values mean tight binding). Details: protein: recombinant; tags: N-terminal polyhistidine and DsRed monomer fusion (pET32a); label: CyDye5-dUTP incorporated in the synthesized complementary strand; 3' TTTTT single-stranded linker to array surface; dsDNA, one strand shown.
T1 sequence: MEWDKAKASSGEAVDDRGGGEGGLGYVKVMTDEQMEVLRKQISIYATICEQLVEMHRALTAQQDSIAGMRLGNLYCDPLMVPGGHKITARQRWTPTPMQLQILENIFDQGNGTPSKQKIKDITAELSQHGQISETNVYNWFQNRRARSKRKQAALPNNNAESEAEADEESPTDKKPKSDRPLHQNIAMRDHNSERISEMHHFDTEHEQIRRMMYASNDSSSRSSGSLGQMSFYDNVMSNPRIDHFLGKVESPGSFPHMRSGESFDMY
In short: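 Ni–NTA purification followed expression in E. coli BL21-CodonPlus of transcription factors fused N-terminally to a polyhistidine tag and DsRed. At 200 nM in PBS with 2% BSA, salmon testes DNA and 50 µM zinc acetate, the protein was incubated for 1 h at 25 °C with a custom Agilent array that had been primer-extended with Cy5-dUTP and blocked with 2% BSA. After washing, the array was read on an Axon 4000B scanner. The binding signal is per-feature fluorescence intensity in arbitrary units.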

Q: Which binding signal does the source give for “AACCAATCAGCGACACCGTCTAACGGCTCCATTTGATTAGCGGAGTCACCTAGTGCAG” here?
A: Its binding signal is 14300 fluorescence intensity (a.u.).

Q: With “AATATAAATTAAATTTTATTTGCTAAAATTAATATCATTGCGGAGTCACCTAGTGCAG” as the sequence, how does the binding signal read?
A: The binding signal was 15000 fluorescence intensity (a.u.).

Q: Which binding signal does the source give for “ATTGATTTTGATAACGCATATTTCTAGATGTCTACGCGTTCGGAGTCACCTAGTGCAG” here?
A: Its binding signal is 28500 fluorescence intensity (a.u.).

Q: With “GTGACTAATTCTGAATGGCAATGTTCTCCACGGAGCTGTCCGGAGTCACCTAGTGCAG” as the sequence, how does the binding signal read?
A: The binding signal was 6640 fluorescence intensity (a.u.).

Q: “TATGTAGCAATTAATCACATTCGTTCGCTATAAATCCGATCGGAGTCACCTAGTGCAG” was tested. Which binding signal did it give?
A: Its binding signal is 3560 fluorescence intensity (a.u.).

Q: For “TATTTAATTCTACAAATCAACATGCAATCATATCCAGTTACGGAGTCACCTAGTGCAG”, which binding signal is on record?
A: The binding signal was 16900 fluorescence intensity (a.u.).

Q: For “TGGAAACATAAATTTTGATGTTACCCTGTGCAACCCTGCACGGAGTCACCTAGTGCAG”, which binding signal is on record?
A: The binding signal was 4870 fluorescence intensity (a.u.).

Q: With “TATCAGTCTGCGTTTAATAATTTAAATTAGTGTCCGTATACGGAGTCACCTAGTGCAG” as the sequence, how does the binding signal read?
A: Its binding signal is 16300 fluorescence intensity (a.u.).

Q: How did the binding signal turn out when “GCTACAATAATTAATCAATTAATTAAATTAAATTAAGTGGCGGAGTCACCTAGTGCAG” was run?
A: Its binding signal is 55300 fluorescence intensity (a.u.).

Q: For “TAAAACTCAATCAATTATAAGTTAATACCATCTTATTTTACGGAGTCACCTAGTGCAG”, which binding signal is on record?
A: The binding signal was 8920 fluorescence intensity (a.u.).

Q: For “TTAAAATTAACAATTGTAGATAATACAGAGTATGTTTTGTCGGAGTCACCTAGTGCAG”, which binding signal is on record?
A: The binding signal was 20700 fluorescence intensity (a.u.).

Q: With “CTAAAATAATAATTAGCCGTAAATAGGAGCATCCATATCACGGAGTCACCTAGTGCAG” as the sequence, how does the binding signal read?
A: The binding signal was 8820 fluorescence intensity (a.u.).

Q: How did the binding signal turn out when “TCTGGTTGATTGCTTCATTTTACTACGTCACATTTTAGTCCGGAGTCACCTAGTGCAG” was run?
A: The binding signal was 42300 fluorescence intensity (a.u.).

Q: For “TATAATTTAAAATGACATCAACCCCGTCACGACAAAGCGGCGGAGTCACCTAGTGCAG”, which binding signal is on record?
A: The binding signal was 31900 fluorescence intensity (a.u.).

Q: Which binding signal does the source give for “TACAATCTGATTAATTAATTAGCACGGAAAATAATGTCAACGGAGTCACCTAGTGCAG” here?
A: Its binding signal is 59200 fluorescence intensity (a.u.).

Q: For “TTAGCAAATTTAATCAGGGATCGATCGATATGGGGAGGTCCGGAGTCACCTAGTGCAG”, which binding signal is on record?
A: The binding signal was 6510 fluorescence intensity (a.u.).

Q: Which binding signal does the source give for “TGATAATTTTAAATTAAATAAGTAAATTTCAGAAAACTATCGGAGTCACCTAGTGCAG” here?
A: Its binding signal is 29700 fluorescence intensity (a.u.).

Q: For “ATTTCAAATTTTAATTTAACAATAACTGAAATTCACAATTCGGAGTCACCTAGTGCAG”, which binding signal is on record?
A: Its binding signal is 14700 fluorescence intensity (a.u.).

Q: “TGTCTGACAGGATCTAGTATGGCGCAAGATTTGTTGCCAGCGGAGTCACCTAGTGCAG” was tested. Which binding signal did it give?
A: The binding signal was 3540 fluorescence intensity (a.u.).

Q: For “GTAAACTGAGTGTTACGATGATTCCATATCTGTCGTTTCGCGGAGTCACCTAGTGCAG”, which binding signal is on record?
A: The binding signal was 4610 fluorescence intensity (a.u.).

Q: “TTAAATCATAAATTATTGATTTTGACATGTAGCTTTATGCCGGAGTCACCTAGTGCAG” was tested. Which binding signal did it give?
A: Its binding signal is 46700 fluorescence intensity (a.u.).

Q: How did the binding signal turn out when “GATATAGAATAAATTAGTACAAAACTGGGCAGTCGAAGGACGGAGTCACCTAGTGCAG” was run?
A: The binding signal was 5410 fluorescence intensity (a.u.).

Q: Which binding signal does the source give for “TTTAATTTCTTTTATTTCCTTTAGGCATAAAGACTGAATGCGGAGTCACCTAGTGCAG” here?
A: Its binding signal is 20900 fluorescence intensity (a.u.).
